Test results from the supplement of paper PMC7125110.
± gives the standard error. Variants at the floor of the assay are shown more often than the library holds them.

B1: glmS ribozyme (parent)
chain: AUAAAAGCGCCAGAACUACAGAAAUGUAGUUGACGAGGAGGAGGUUUAUCGAAUUUUCGGCGGAUGCCUCCAAA

Tests used:
Conditions in all cases: with glucosamine-6-phosphate
glucosamine-6-phosphate [1] = variants of: B1; test: self-cleavage kobs at 40 uM GlcN6P; higher = faster cleavage; RNA array
Outline: (§1)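 Sequenced MiSeq chips were the platform: E. coli RNA polymerase transcribed barcoded ribozyme variants on them in situ, and a hybridised Cy3 probe tracked these at 37 °C. After glucosamine-6-phosphate (40 μM to 10 mM) in HEPES/KCl/Mg(OAc)2 buffer was flowed in, tiles were imaged over ~14 h. Signals normalised to baseline and to non-cleaving reference variants were reduced to per-tile medians and fit to one- or two-exponential decays to obtain kobs. kcat and KM were derived through weighted Michaelis–Menten fits across concentrations.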

glucosamine-6-phosphate [2] = variants of: B1; test: self-cleavage kobs at 640 uM GlcN6P; higher = faster cleavage; RNA array
Outline: as §1

glucosamine-6-phosphate [3] = variants of: B1; test: self-cleavage kobs at 160 uM GlcN6P; higher = faster cleavage; RNA array
Outline: as §1

glucosamine-6-phosphate [4] = variants of: B1; test: self-cleavage kobs at 2500 uM GlcN6P; higher = faster cleavage; RNA array
Outline: as §1

glucosamine-6-phosphate [5] = variants of: B1; test: self-cleavage kobs at 10000 uM GlcN6P; higher = faster cleavage; RNA array
Outline: as §1

Row | Variant | self-cleavage kobs at 40 uM GlcN6P (glucosamine-6-phosphate [1]) [s⁻¹] | self-cleavage kobs at 640 uM GlcN6P (glucosamine-6-phosphate [2]) [s⁻¹] | self-cleavage kobs at 160 uM GlcN6P (glucosamine-6-phosphate [3]) [s⁻¹] | self-cleavage kobs at 2500 uM GlcN6P (glucosamine-6-phosphate [4]) [s⁻¹] | self-cleavage kobs at 10000 uM GlcN6P (glucosamine-6-phosphate [5]) [s⁻¹]
1 | A15G G29C | 3.64e-05 ± 1.1e-05 | 0.000327 ± 7.2e-05 | 0.000187 ± 5.3e-05 | 0.00156 ± 0.00032 | 0.002 ± 0.00023
2 | A15G G29U | 6.06e-05 ± 1.7e-05 | 0.000265 ± 0.0001 | 0.000104 ± 4.4e-05 |  | 
3 | A15G G35A A53C U65C | < 1e-05 |  |  |  | < 1e-05
4 | A15G G35C C68A | < 1e-05 |  |  |  | 
5 | A15G G35C U47C A52G | < 1e-05 |  |  |  | < 1e-05
6 | A15G G37A U49A A52G G59A G62U | < 1e-05 |  |  | < 1e-05 | 
7 | A15G G37C G63A C68U | < 1e-05 |  |  |  | 
8 | A15G G37U | < 1e-05 |  |  |  | 
9 | A15G G38C | < 1e-05 | < 1e-05 | < 1e-05 | < 1e-05 | 
10 | A15G G38U G40U | < 1e-05 |  |  |  | 
11 | A15G G38U U47A C68G | 9.09e-05 ± 3.3e-05 |  |  |  | 
12 | A15G G41U | 0.000204 ± 2.3e-05 |  |  |  | 
13 | A15G G43A C71G | < 1e-05 |  |  |  | < 1e-05
14 | A15G G43C A52U | < 1e-05 |  |  |  | 
15 | A15G G43U A48C | < 1e-05 |  |  | < 1e-05 | 
16 | A15G G59A C61U | < 1e-05 | < 1e-05 | < 1e-05 | < 1e-05 | < 1e-05
17 | A15G G62A | < 1e-05 |  | < 1e-05 | < 1e-05 | < 1e-05
18 | A15G G63C | < 1e-05 | < 1e-05 | < 1e-05 | < 1e-05 | < 1e-05
19 | A15G G66C | 3.37e-05 ± 1.1e-05 | 0.000368 ± 6e-05 | 0.000115 ± 2.5e-05 | 0.000793 ± 0.00014 | 0.000649 ± 9.7e-05
20 | A15G U25A C50G C70U | 6.43e-05 ± 1.3e-05 |  |  |  | 6.03e-05 ± 1.6e-05
21 | A15G U45G | 0.000211 ± 3.4e-05 | 0.0024 ± 0.00037 | 0.000643 ± 9.8e-05 | 0.0044 ± 0.00084 | 0.00741 ± 0.001
22 | A15G U46C C61A | < 1e-05 |  |  | < 1e-05 | < 1e-05
23 | A15G U47G G60A C61U C68A | 6.07e-05 ± 2.7e-05 | 0.000299 ± 9.2e-05 |  | 0.00013 ± 3.6e-05 | 
